# Experimental data as given in the supplement of paper PMC12217912.
# The other results are listed elsewhere or left out. The full chains were built here from the parent and the listed change. Values near 0.05 are background.
# B1: TEV protease; numbered along this chain (parent)
# chain: MGESLFKGPRDYNPISSSICHLTNESDGHTTSLYGIGFGPFIITNKHLFRRNNGTLVVQSLHGVFKVKDTTTLQQHLVDGRDMIIIRMPKDFPPFPQKLKFREPQREERICLVTTNFQTKSMSSMVSDTSCTFPSGDGIFWKHWIQTKDGQCGSPLVSTRDGFIVGIHSASNFTNTNNYFTSVPKNFMELLTNQEAQQWVSGWRLNADSVLWGGHKVFMVKPEEPFQPVKEATQL
# Variants of: B1
# Test: raw area under fraction-flipped curve 0-4 h after induction (AUC4h, not background-subtracted), DNA-recorder readout of cleavage of the substrate (dimensionless); higher = more cleavage of the substrate by the protease variant
# Settings: temperature: 34 °C; time window: 0-4 h after rhamnose induction
# Protocol: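 In vivo DNA recorder in E. coli TOP10(DE3) ΔrhaA at 34 °C. Each TEVp single-site mutant (parent TEVp 0) is paired with a single-site variant of the 7-mer TEVs (canonical ENLYFQ|S). The substrate sits between flexible linkers in a Bxb1-sfGFP-TEVs-SsrA fusion, so cleavage stabilises Bxb1 and speeds flipping of a recombination array, read by NGS. The value is the raw area under the fraction-flipped curve over 0-4 h after rhamnose induction (AUC4h), with ≥20 reads per time point. It is not background-subtracted; inactive controls average about 0.047.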
# 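Further: Bxb1 expression induced with 0.2% (w/v) L-rhamnose at OD600 near 0.5, cultures sampled hourly, flipped fraction per protease–substrate barcode pair counted by paired-end Illumina sequencing.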
Variant,area with substrate CNLYFQS,area with substrate DNLYFQS,area with substrate HNLYFQS,area with substrate INLYFQS,area with substrate KNLYFQS,area with substrate LNLYFQS,area with substrate MNLYFQS,area with substrate TNLYFQS,area with substrate WNLYFQS,area with substrate YNLYFQS,area with substrate FNLYFQS,area with substrate GNLYFQS,area with substrate NNLYFQS,area with substrate PNLYFQS,area with substrate SNLYFQS,area with substrate RNLYFQS,area with substrate VNLYFQS,area with substrate QNLYFQS
T55C,0.0763,0.0557,0.0431,0.0636,0.0588,0.0672,0.0648,0.0636,0.0584,0.0593,–,–,–,–,–,–,–,–
V57N,0.0785,0.0393,0.0526,–,–,–,–,0.0628,0.0568,0.0587,0.0862,0.0527,0.086,0.057,0.0775,–,–,–
V57S,0.0506,0.065,0.0475,–,–,0.026,0.0711,–,0.0504,0.0673,0.0698,–,–,0.0731,–,0.0754,0.0556,–
V58R,0.0433,0.0367,0.0504,–,–,–,–,–,0.058,–,0.049,0.039,0.0549,0.0436,–,–,–,–
Q59G,0.0718,0.0956,0.0649,0.055,–,–,–,0.0641,–,0.0712,–,0.0589,0.0595,0.0659,0.0536,–,–,–
Q59K,0.0729,0.0634,0.064,–,–,–,–,0.0652,0.0669,0.0628,0.0667,0.0681,0.05,0.0709,–,0.047,–,–
S60C,0.0573,0.084,0.0585,0.0598,0.0806,0.0659,0.0599,0.0657,0.0619,0.0603,–,–,0.0845,0.0648,0.0738,0.0629,0.0692,0.0761
H62I,0.0641,0.0726,0.0477,–,–,0.0683,–,0.0579,0.0597,–,–,–,0.0772,0.0686,0.0677,0.0564,–,–
H62Y,0.0609,0.101,0.0685,0.062,–,0.069,0.0733,0.0631,0.0631,0.0695,–,–,0.0725,–,0.0735,–,–,0.0777
G63L,0.082,0.0835,0.0584,0.0372,0.0553,0.057,0.0551,0.0557,0.0525,0.0589,0.063,–,–,–,0.0519,–,0.0607,–
G63R,0.0584,0.0701,0.0648,0.0729,0.0635,0.0598,–,–,0.0585,0.0561,0.0486,–,0.0571,–,0.0668,0.0658,–,0.0597
G63T,0.0978,0.0674,0.0478,0.0649,0.0737,0.0594,–,0.0636,0.0591,–,0.0589,0.0767,–,0.0521,0.0635,0.0658,–,–
F65N,0.0668,0.0691,–,0.0337,–,–,–,0.0728,0.0575,0.0622,0.0671,–,0.0577,0.0667,0.0747,–,–,–
K66D,0.0617,0.0756,0.0517,0.0577,0.0657,0.0764,0.0691,0.0694,0.0551,–,–,0.106,0.0441,0.0529,–,–,0.0684,–
K66M,0.0644,0.0893,0.0717,0.0662,0.0571,0.0601,0.0603,0.062,0.0654,0.0549,0.0366,–,–,0.0758,0.0749,–,–,–
V67A,0.0573,0.0789,0.0553,–,0.0595,0.053,0.0521,0.0548,0.0486,0.0567,–,–,–,0.0623,–,0.0214,–,–
V67S,0.064,0.0684,–,0.0598,0.0558,0.0417,0.0583,0.0568,0.0499,0.0519,0.0585,0.067,0.0529,0.0574,0.0698,0.0472,0.0634,–
V67W,0.0592,0.0809,–,0.0639,0.0715,0.0624,–,0.0685,0.0537,0.0659,–,0.0643,0.0668,–,0.0588,–,0.0496,–
K68A,0.0719,0.126,0.0599,0.0662,0.0739,–,0.0764,0.0635,0.0829,0.0542,0.0619,–,–,0.0676,0.07,0.0586,0.0613,–
K68I,0.059,0.0807,0.063,0.0802,0.0644,0.0542,0.0733,0.0837,–,0.0527,0.0553,–,0.0617,0.0675,0.0653,–,–,0.0618
K68Y,0.0575,0.072,0.06,–,0.0721,–,0.0634,0.0659,–,–,0.0508,–,0.0597,0.073,0.0644,–,–,–
D69S,0.0691,0.0546,0.0559,0.0607,0.0506,0.0572,0.0464,0.0534,0.0575,0.0568,0.0673,–,0.0674,0.0567,0.0608,0.0795,0.0591,–
T70L,0.0711,0.075,0.0624,0.061,0.0579,0.0566,–,–,0.0547,0.0563,0.0508,–,–,0.0647,0.07,–,0.0596,0.0662
T70R,0.0536,0.0514,–,–,–,0.0524,0.0534,0.0463,0.047,0.0426,–,–,0.0788,0.0685,0.0363,0.0552,–,–
T71V,0.0789,0.0794,0.0589,0.0783,0.0732,0.0558,0.0515,0.0656,0.0656,0.0713,0.0558,0.0709,0.0561,0.0604,0.0587,–,0.052,–
L73E,0.0389,0.0456,0.0488,0.0669,0.0583,–,0.0497,0.0562,0.062,0.0632,0.0554,–,0.0447,0.0504,0.0501,–,0.052,0.0589
L73Q,0.053,0.0597,0.0559,0.0429,0.0284,–,0.0539,0.0531,0.05,0.0497,–,0.0499,0.0574,0.0428,0.0626,0.0515,–,0.0527
